From PubChem BioAssay (NCI)
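Compound exposure: 48 hours, 5 concentrations, 96-well plates. The concentration for 50% growth inhibition is given as GI50. TGI: total growth inhibition.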

Test system: NCI-H322M lung
Assay: NCI anticancer screen, dose series, 48 h

## O=C(NNc1nc2cc(F)cc(F)c2n2cccc12)c1ncccn1
  GI50: 312 nM
  TGI: > 20100 nM
